According to patent US20250179140A1 (Bristol-Myers Squibb, published 2025):

T1: IL2R endogenously expressed on the T cell line, Kit225 (human, UniProt P01589 22-272; P14784 27-551; P31785 23-369)
T1 sequence (looked up) 1: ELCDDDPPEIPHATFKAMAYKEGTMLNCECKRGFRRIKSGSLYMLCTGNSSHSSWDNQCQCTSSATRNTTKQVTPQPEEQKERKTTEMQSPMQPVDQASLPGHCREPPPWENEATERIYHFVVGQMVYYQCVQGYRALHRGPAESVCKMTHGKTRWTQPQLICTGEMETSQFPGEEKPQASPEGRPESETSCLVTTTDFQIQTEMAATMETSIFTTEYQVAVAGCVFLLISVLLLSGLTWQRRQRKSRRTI
T1 sequence (looked up) 2: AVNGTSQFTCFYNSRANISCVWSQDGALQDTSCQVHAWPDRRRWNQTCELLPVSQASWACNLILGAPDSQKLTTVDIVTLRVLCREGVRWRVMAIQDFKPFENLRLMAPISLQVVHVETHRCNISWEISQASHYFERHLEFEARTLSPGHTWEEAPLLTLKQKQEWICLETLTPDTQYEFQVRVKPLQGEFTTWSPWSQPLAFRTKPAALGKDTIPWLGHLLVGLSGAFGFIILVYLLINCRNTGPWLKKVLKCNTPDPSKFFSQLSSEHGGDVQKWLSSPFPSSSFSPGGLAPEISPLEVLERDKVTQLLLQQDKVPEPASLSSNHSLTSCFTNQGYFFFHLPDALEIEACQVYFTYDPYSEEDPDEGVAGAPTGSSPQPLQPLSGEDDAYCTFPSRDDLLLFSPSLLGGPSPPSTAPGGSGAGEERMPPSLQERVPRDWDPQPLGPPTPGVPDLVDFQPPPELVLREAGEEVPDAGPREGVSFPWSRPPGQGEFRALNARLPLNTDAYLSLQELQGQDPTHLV
T1 sequence (looked up) 3: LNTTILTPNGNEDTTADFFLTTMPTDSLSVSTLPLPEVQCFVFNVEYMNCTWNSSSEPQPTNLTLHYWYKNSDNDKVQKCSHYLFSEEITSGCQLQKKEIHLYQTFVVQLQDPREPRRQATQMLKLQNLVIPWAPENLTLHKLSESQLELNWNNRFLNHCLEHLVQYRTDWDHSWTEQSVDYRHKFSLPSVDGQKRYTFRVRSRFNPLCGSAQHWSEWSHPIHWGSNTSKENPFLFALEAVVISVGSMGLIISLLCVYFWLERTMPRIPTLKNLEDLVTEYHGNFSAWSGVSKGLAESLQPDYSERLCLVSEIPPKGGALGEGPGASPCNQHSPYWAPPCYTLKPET

T2: biot-hCD25-BioP-TVMV-His which had been His cleaved (hCD25) (human, UniProt P01589 22-240, biotinylated (biot-; BioP tag), captured on streptavidin)
T2 construct: Soluble human CD25 captured at low density (~300 RU) on an SA sensor chip; also called human sCD25; sCD25; not shown: BioP-TVMV tag remnant after cleavage of the His tag
T2 sequence (looked up): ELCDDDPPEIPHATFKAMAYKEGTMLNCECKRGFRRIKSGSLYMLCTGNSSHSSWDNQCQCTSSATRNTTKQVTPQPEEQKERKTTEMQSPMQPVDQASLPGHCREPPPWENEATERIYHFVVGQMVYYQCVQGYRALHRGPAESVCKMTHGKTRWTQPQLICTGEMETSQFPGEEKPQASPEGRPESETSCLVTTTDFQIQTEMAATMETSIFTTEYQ

T3: hCD122(27-241)-hFc-D/hCD132(23-263)-hFc-K heterodimeric Fc fusion (hIL2-Rb/g) (human, UniProt P14784 27-241; P31785 23-263)
T3 construct: range 27-241;range 23-263; Captured via Protein A immobilised on a CM5 chip; also called sIL2Rβ/IL2Rγ heterodimer; sIL2Rβ/IL2Rγ heteroreceptors; not shown: hFc-D: human Fc, one side of a heterodimeric pair; hFc-K: human Fc, other side of the heterodimeric pair
T3 sequence (looked up) 1: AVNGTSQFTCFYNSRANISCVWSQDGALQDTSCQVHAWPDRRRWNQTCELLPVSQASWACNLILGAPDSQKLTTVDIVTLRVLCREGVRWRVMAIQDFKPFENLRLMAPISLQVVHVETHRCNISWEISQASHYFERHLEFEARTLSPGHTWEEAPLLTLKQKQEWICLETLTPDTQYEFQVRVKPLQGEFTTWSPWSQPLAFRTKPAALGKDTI
T3 sequence (looked up) 2: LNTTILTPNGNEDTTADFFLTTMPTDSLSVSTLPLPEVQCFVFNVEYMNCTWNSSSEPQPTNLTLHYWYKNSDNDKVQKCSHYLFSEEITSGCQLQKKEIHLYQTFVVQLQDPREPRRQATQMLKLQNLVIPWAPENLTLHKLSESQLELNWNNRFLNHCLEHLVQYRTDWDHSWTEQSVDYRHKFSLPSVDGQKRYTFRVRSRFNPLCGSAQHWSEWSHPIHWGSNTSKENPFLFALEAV


Tests used:
[1] = biological target: T1, IL2R endogenously expressed on the T …; experiment: cell-based or functional assay
[2] = biological target: T2, biot-hCD25-BioP-TVMV-His which had been …; experiment: SPR, observed equilibrium KD; hCD25 captured on streptavidin chip
[3] = biological target: T3, hCD122(27-241)-hFc-D/hCD132(23-263)-hFc- …; experiment: SPR, observed equilibrium KD; hIL2-Rb/g Fc heterodimer captured via Protein A on CM5 chip

| Binder | EC50 (ng/ml), IRF1-GAS-Luc reporter in Kit225 cells [1] | Kd [2] | Kd [3] |
| --- | --- | --- | --- |
| hIL2-CD25([…])-His (other) [sequence of about 150 residues not given]GGGSGGGSGGGSELCDDDPPEIPHATFKAMAYKEGTMLNCECKRGFRRIKSGSLYMLCTGNSSHSSWDNQCQCTSSATRNTTKQVTPQPEEQKERKTTEMQSPMQPVDQASLPGHCREPPPWENEATERIYHFVVGQMVYYQCVQGYRALHRGPAESVCKMTHGKTRWTQPQLICTGEGGHHHHHH | 145 ng/mL |  |  |
| IL2-CD25([…])-Fc1.1 SEQ ID NO: 68 (Fc fusion, also called hIL2-CD25([…])-Fc1.1 (bivalent)) [sequence of about 150 residues not given]GGGSGGGSGGGSELCDDDPPEIPHATFKAMAYKEGTMLNCECKRGFRRIKSGSLYMLCTGNSSHSSWDNQCQCTSSATRNTTKQVTPQPEEQKERKTTEMQSPMQPVDQASLPGHCREPPPWENEATERIYHFVVGQMVYYQCVQGYRALHRGPAESVCKMTHGKTRWTQPQLICTGEMETSQFPGEEKPQASPEGRPESETSDKTHTCPPCPAPEAEGAPSVFLFPPKPKDTLMISRTPEVTCVVVDVSHEDPEVKFNWYVDGVEVHNAKTKPREEQYNSTYRVVSVLTVLHQDWLNGKEYKCKVSNKALPSSIEKTISKAKGQPREPQVYTLPPSREEMTKNQVSLTCLVKGFYPSDIAVEWESNGQPENNYKTTPPVLDSDGSFFLYSKLTVDKSRWQQGNVFSCSVMHEALHNHYTQKSLSLSPG | 3410 ng/mL | 2500 nM | 100 nM |
| Fc-(IL2(V91K)CD25)2 bivalent SEQ ID NO: 203 (Fc fusion) [sequence of about 350 residues with a human IgG1 Fc not given]GGGSGGGSGGGSELCDDDPPEIPHATFKAMAYKEGTMLNCECKRGFRRIKSGSLYMLCTGNSSHSSWDNQCQCTSSATRNTTKQVTPQPEEQKERKTTEMQSPMQPVDQASLPGHCREPPPWENEATERIYHFVVGQMVYYQCVQGYRALHRGPAESVCKMTHGKTRWTQPQLICTGEMETSQFPGEEKPQASPEGRPESETS |  | 3000 nM |  |
| IL2(D40T)-CD25 SEQ ID NO: 70 (other) [sequence of about 150 residues with changes not given]GGGSGGGSGGGSELCDDDPPEIPHATFKAMAYKEGTMLNCECKRGFRRIKSGSLYMLCTGNSSHSSWDNQCQCTSSATRNTTKQVTPQPEEQKERKTTEMQSPMQPVDQASLPGHCREPPPWENEATERIYHFVVGQMVYYQCVQGYRALHRGPAESVCKMTHGKTRWTQPQLICTGEMETSQFPGEEKPQASPEGRPESETS |  | 2800 nM |  |
| IL2(V111K)-CD25 SEQ ID NO: 69 (other) [sequence of about 150 residues with changes not given]GGGSGGGSGGGSELCDDDPPEIPHATFKAMAYKEGTMLNCECKRGFRRIKSGSLYMLCTGNSSHSSWDNQCQCTSSATRNTTKQVTPQPEEQKERKTTEMQSPMQPVDQASLPGHCREPPPWENEATERIYHFVVGQMVYYQCVQGYRALHRGPAESVCKMTHGKTRWTQPQLICTGEMETSQFPGEEKPQASPEGRPESETS |  | 1900 nM |  |
